A collection of fitness landscapes (doi:10.1016/j.celrep.2020.107928)
Whole data set: some 81,000 sequences, median “one-hybrid fitness for binding parS DNA” near -0.17, cut for the highest 2% near 0.51. This is one part of the list.

B1: Caulobacter ParB omega fusion; a variant is named by its letters at X, in order, B8GW30 (parent)
chain: MESVVVGEPGMSEGRRGLGRGLSALLGEVDAAPAQAPGEQLGGSREAPIEILQRNPDQPRRTFREEDLEDLSNSIREKGVLQPILVRPSPDTAGEYQIVAGERAWRAAQRAGLKTVPIMVRELDDLAVLEIGIIENVQRADLNVLEEALSYKVLMEKFERTQENIAQTIGKSXSHVANXMRLLXLPDEVQSYLVSGELTAXHARAIAAAADPVALAKQIIEGGLSVRETEALARKAPNLSAGKSKGGRPPRVKDTDTQALESDLSSVLGLDVSIDHRGSTGTLTITYATLEQLDDLCNRLTRGI

Variants of: B1
Experiment: one-hybrid fitness for binding parS DNA (scaled: cognate 1, non-cognate 0); higher = stronger binding
Settings: with parS DNA site
In short: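 The reporter was HIS3, with the binding site 19 bp from the promoter, in E. coli USO used for bacterial one-hybrid selection of Caulobacter ParB libraries with four specificity codons randomised. Growth was on M9 lacking histidine, with 0.1 mM IPTG and 5 mM 3-AT, for 48 hours at 37°C. Illumina sequencing covered plasmids before and after selection; three replicate libraries were pooled and variants with under 10 reads dropped. A fitness score is the log change in variant-to-wild-type read ratio, rescaled to the cognate and non-cognate references.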

one-hybrid fitness for binding parS DNA, 0.458:
RLEY

one-hybrid fitness for binding parS DNA, ≤ 0.2:
GCVM
AATG
QFNW
WSKI
QYSF
CAAY
FQIT
LCDM
QGDA
LGGC
AMTG
DVKL
FGEV
PCHW
DANM
LMND
LITF
HIHV
VPMY
HDPR
RGAW
DFEG
CVFL
LSMM
QMGT
MRIS
ASRT
INLK
VLCA
PQSL
SSRT
SRGC
QQEQ
KPHD
CHAR
GKTS
AHEN
FILG
GDHM
PCTC
QNRW
TSAQ
PRDF
MVNG
QTFS
LWSA
RHID
RDEP
QVHS
QSEC
QIHT
VWLW
MVWR
KLQE
KSHS
YIHC
NGIR
RKGE
QSYM
IASF
FALE
QPHM
CNRV
QDAF
FDRN
QNAS
YPPS
YNPF
QWFE
KSCA
LFTN
RTSD
TMCS
CRAP
FHAS
AKHT
QHAF
PRRC
HTWD
NTMW
IITG
VIHV
EYNK
RWKQ
MWHT
LWKT
YHNR
QTPE
AIVT
PMCD
ILRN
AFHS
PQTC
PMSL
LKMD
KDSC

one-hybrid fitness for binding parS DNA, 0.452:
RNLA
